# Measurements as given in PubChem BioAssay AID1745853 (National Center for Advancing Translational Sciences (NCATS), 2022).
# The other results are listed elsewhere or left out. Shown are side measurements of this screen, not its main read-out; they come without a call.
# Columns and labels:
# Assay in all cases: Primary Screen for Target Class Profiling of Small Molecule Inhibitors of Methyltransferases
# [1] = molecular target: Glycine N-methyltransferase (Homo sapiens) (UniProt Q14749); conditions: purified enzyme, MTase-Glo SAH luminescence; measured here: GNMT inhibition; at 40 µM; stronger effect = lower value
# Summary of the method: (§1)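 Each enzyme was reacted with SAM and its substrate, with compounds tested once at 40 uM; SAH formed was read by MTase-Glo luminescence.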
# [2] = molecular target: Guanidinoacetate N-methyltransferase (Homo sapiens) (UniProt Q14353); conditions: purified enzyme, MTase-Glo SAH luminescence; measured here: GAMT inhibition; at 40 µM; stronger effect = lower value
# Summary of the method: as §1
# [3] = molecular target: Histamine N-methyltransferase (Homo sapiens) (UniProt P50135); conditions: purified enzyme, MTase-Glo SAH luminescence; measured here: HNMT inhibition; at 40 µM; stronger effect = lower value
# Summary of the method: as §1
# [4] = molecular target: Nicotinamide N-methyltransferase (Homo sapiens) (UniProt P40261); conditions: purified enzyme, MTase-Glo SAH luminescence; measured here: NNMT inhibition; at 40 µM; stronger effect = lower value
# Summary of the method: as §1
# [5] = molecular target: Phenylethanolamine N-methyltransferase (Homo sapiens) (UniProt P11086); conditions: purified enzyme, MTase-Glo SAH luminescence; measured here: PNMT inhibition; at 40 µM; stronger effect = lower value
# Summary of the method: as §1
# On the % scale 0 is the no-effect control and ±100 the full control effect.
Compound,"activity change, negative = inhibition [1]","activity change, negative = inhibition [2]","activity change, negative = inhibition [3]","activity change, negative = inhibition [4]","activity change, negative = inhibition [5]"
CC(C)(N)c1ccc(-c2nc3ccccc3nc2-c2ccccc2)cc1,-5.81%,8.14%,6.27%,-11.7%,-3%
CC1(C(=O)NC2CCCCCC2)Cn2nc(C3CC3)cc2C(=O)N1Cc1ccccc1Br (stereo not given),3.67%,0.995%,7.15%,2.34%,2.65%
C[N+](C)(C)CC=O,4.64%,8.6%,4.92%,-8.47%,1.45%
O=C(Nc1ccccc1)N1CCC(OCc2noc(C3CCCO3)n2)CC1 (stereo not given),-0.989%,0.147%,1.71%,4.53%,-0.295%
COc1ccc(Nc2cc(C)c3cc(NC(=O)c4cc(OC)cc(OC)c4)ccc3n2)cc1,,-14.4%,,-24.8%,-4.47%
CCOc1ccc(NC(=O)c2ncn3c2C(=O)N(C2CC2)C(C)(C(=O)NCc2ccc(F)cc2)C3)cc1 (stereo not given),-8.05%,0.252%,-2.49%,-2.54%,-7.5%
CC(C)CCN1CCNC(=O)C1CC(=O)NCc1ccc(O)cc1O (stereo not given),-4.79%,-0.943%,-3.39%,-0.137%,-3.24%
CN1C[C@H]2CN(C(=O)c3ccc(C(F)(F)F)cc3)CCN2C1=O,-0.523%,2.91%,1.25%,2.97%,17.9%
Cc1cccc(C(=O)N2CCN(c3cc(C(F)(F)F)nc(C)n3)CC2)c1,-7.59%,-10.7%,-4.5%,-10.6%,-16.1%
Cc1ccc(NC(=O)Cn2nc3n(CCCOC(C)C)c(=O)c4ccccc4n3c2=O)cc1,2.35%,4.4%,1.68%,3.28%,3.21%
COc1cc(C(C)=O)ccc1O[C@@H]1O[C@H](CO[C@@H]2OC[C@@H](O)[C@H](O)[C@H]2O)[C@@H](O)[C@H](O)[C@H]1O,2.06%,0.89%,9.06%,-11.4%,-4.82%
CC(C)CNC(=O)c1ccc2c(=O)n(CC(C)C)c3nnc(SCC(=O)NC(C)(C)C)n3c2c1,1.76%,0%,8.54%,-7.43%,2.38%
CC1(C)CCCC2(C)C(CO)C3CCC2C31 (stereo not given),3.35%,7.74%,11.3%,-6.6%,4.48%
Cc1ccccc1NC(=O)Cn1nc2n(CCC(C)C)c(=O)c3ccc(C(=O)NCC(C)C)cc3n2c1=O,-5.05%,-5.55%,-3.56%,-7.79%,-8.13%
Cc1ccccc1Cn1nc2n(Cc3ccc(F)cc3)c(=O)c3ccccc3n2c1=O,6.79%,1.42%,6.86%,7.05%,7.22%
O=C(CCn1ccc2cc(S(=O)(=O)N3CCCCC3)ccc21)NCc1cccc(Cl)c1,-4.85%,-0.098%,-4.54%,-16.2%,-2.53%
COC(=O)CCC(=O)N1CCOC(CCCC(C)C)C1 (stereo not given),-0.794%,-1.63%,-0.035%,-4.68%,-3.19%
COc1ccccc1CNC(=O)C1(C)Cn2c(cc3ccccc32)C(=O)N1CCc1ccc(OC)c(OC)c1 (stereo not given),-1.02%,2.96%,4.84%,-5.25%,0.807%
C=CC(C)(O)CC[C@@H]1[C@@]2(C)CCCC(C)(C)C2CC[C@@]1(C)O (stereo not given in full),-6.79%,,-3.05%,,

Compound,"activity change, negative = inhibition [1]","activity change, negative = inhibition [2]","activity change, negative = inhibition [3]","activity change, negative = inhibition [4]","activity change, negative = inhibition [5]"
COc1cccc(C(=O)N2CCC(N3C(=O)c4c(c(C)nn4-c4ccccc4)C3C3CC3)C2)c1 (stereo not given),-12.1%,-15.1%,-12.5%,-30.5%,-18.1%
O=C(CCc1nnc2n(CCc3ccccc3)c(=O)c3ccccc3n12)N1CCN(c2ccc(Cl)cc2)CC1,-8.59%,0%,4.37%,-4.38%,-0.672%
Cc1nnc2ccc(NC3CCCC3)nn12,-9.2%,-12.5%,-9.27%,-14.9%,-13.8%
Cc1cccc(NC(=O)N2CCCCC2c2nc(-c3cnccn3)n[nH]2)c1 (stereo not given),-3.83%,-9.27%,-4.3%,-8.77%,-8.81%
CCCn1c(=O)c2ccc(C(=O)NCC(C)C)cc2n2c(=O)n(CC(=O)N(C)c3ccc(F)cc3)nc12,5.38%,0%,4.18%,5.97%,5.37%
C[C@@H]1CN(C2(C(=O)NCc3n[nH]c4c3CCC4)Cc3ccccc3C2)C[C@H](C)O1,-3.67%,-11%,-5.34%,-13.9%,-11.4%
COc1ccc(CCN2C(=O)c3ccccc3CC2(C)C(=O)NC2CCC(C)CC2)cc1OC (stereo not given),-9.48%,2.7%,-2.31%,-1.5%,-8.16%
CCCn1c(=O)[nH]c(=O)c2[nH]cnc21,-1.62%,11.1%,6.19%,-3.35%,3.43%
COC(=O)c1ccc(COc2cc3oc(=O)cc(-c4ccccc4)c3cc2Cl)cc1,-5.1%,3.06%,-1.03%,2.46%,-7.04%
C[C@@H]1O[C@@H](O[C@@H]2CO[C@@H](O[C@H]3CC[C@@]4(C)C(CC[C@]5(C)C4CC=C4[C@@H]6CC(C)(C)CC[C@]6(C(=O)O[C@@H]6O[C@H](CO)[C@@H](O)[C@H](O)[C@H]6O)CC[C@]45C)[C@]3(C)CO)[C@H](O)[C@H]2O[C@@H]2O[C@H](CO)[C@@H](O)[C@H](O)[C@H]2O)[C@H](O)[C@H](O)[C@H]1O (stereo not given in full),-2.3%,-13.4%,2.44%,-24.6%,0.544%
C=CC(=O)N1CCN(C(=O)c2cc(-c3cc(Cl)ccc3Cl)c(Cl)cc2OC)CC1,-67.3%,2.39%,-7.94%,-46%,5.49%
CCC(C)NC(=O)Cn1nc2n(C(C)C)c(=O)c3ccc(C(=O)NC(C)C)cc3n2c1=O (stereo not given),2.22%,2.25%,4.99%,1.36%,4.93%
COc1ccc(/C=C/C(=O)O[C@@H]2[C@@H](O)[C@@H](O)[C@H](O[C@@H]3C=C(CO)[C@H]4[C@H](O[C@@H]5O[C@H](CO)[C@@H](O)[C@H](O)[C@H]5O)OC=C[C@H]43)O[C@H]2C)cc1O,-0.828%,-5.04%,-9.54%,-13.6%,-1.46%
CC1(C)CCC(C)(C)c2cc(C3(c4ccc(C(=O)O)cc4)OCCO3)ccc21,5.55%,-0.117%,4.89%,-28.6%,1.43%
CC1=NOC2(CCN(Cc3ccc(Cl)cc3)CC2)C1,-0.766%,-2%,0.305%,-4.4%,-0.792%
CCCNC(=O)N1Cc2c(sc3c2CCCC3)-n2cccc2C1C(C)C (stereo not given),-9.75%,-0.854%,1.11%,-9.78%,-2.26%
CCCn1c(=O)c2ccc(C(=O)NC3CCCC3)cc2n2c(=O)n(CC(=O)Nc3ccc(C)cc3C)nc12,3.89%,2.98%,6.74%,0.413%,0.505%
C[C@@H]1O[C@@H](OC2C(CO)OC(OCC3OC(OC(=O)[C@]45CCC(C)(C)CC4C4=CCC6[C@@]7(C)CC[C@@H](O)[C@](C)(C(=O)O)C7CC[C@@]6(C)[C@]4(C)CC5)C(O)C(O)C3O)C(O)C2O)[C@H](O)[C@H](O)[C@H]1O (stereo not given in full),0.666%,4.42%,5.14%,-12.7%,0.708%
